# Measurements published in paper PMC9911399, “Two distinct binding modes provide the RNA-binding protein RbFox with extraordinary sequence specificity”.
# Residue numbers refer to the chain shown, from its start. Some of the results follow.
# T1: RBFOX1 RRM (Homo sapiens, UniProt Q9NWB1 109-208)
# T1 sequence: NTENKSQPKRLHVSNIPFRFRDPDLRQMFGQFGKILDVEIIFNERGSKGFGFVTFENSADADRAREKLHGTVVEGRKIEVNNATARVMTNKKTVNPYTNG
# B1: AGAAGGU (DNA:RNA)
# RNA: GGGAGACCGGAAUUCAGAUUGUCCAGAAGGUUUAAAUCCCGUCGUAGCCACCA
# DNA 1: CAATCTGAATTCCGGTCTCCC
# DNA 2: TGGTGGCTACGACGGGATT
# B2: UCAGUGU (DNA:RNA)
# RNA: B1 RNA with A25U, G26C, A28G, G29U
# DNA 1: CAATCTGAATTCCGGTCTCCC
# DNA 2: TGGTGGCTACGACGGGATT
# B3: UCCCGCU (DNA:RNA)
# RNA: B1 RNA with A25U, G26C, A27C, A28C, G30C
# DNA 1: CAATCTGAATTCCGGTCTCCC
# DNA 2: TGGTGGCTACGACGGGATT
# B4: CGCAGCA (DNA:RNA)
# RNA: B1 RNA with A25C, A27C, G30C, U31A
# DNA 1: CAATCTGAATTCCGGTCTCCC
# DNA 2: TGGTGGCTACGACGGGATT
# B5: CUCGAUC (DNA:RNA)
# RNA: GGGAGACCGGAAUUCAGAUUGUCCCUCGAUCUUAAAUCCCGUCGUAGCCACCA
# DNA 1: CAATCTGAATTCCGGTCTCCC
# DNA 2: TGGTGGCTACGACGGGATT
# B6: AGAACGU (DNA:RNA)
# RNA: B1 RNA with G29C
# DNA 1: CAATCTGAATTCCGGTCTCCC
# DNA 2: TGGTGGCTACGACGGGATT
# B7: GGUUACG (DNA:RNA)
# RNA: B1 RNA with A25G, A27U, A28U, G29A, G30C, U31G
# DNA 1: CAATCTGAATTCCGGTCTCCC
# DNA 2: TGGTGGCTACGACGGGATT
# B8: UUACGCG (DNA:RNA)
# RNA: B1 RNA with A25U, G26U, A28C, G30C, U31G
# DNA 1: CAATCTGAATTCCGGTCTCCC
# DNA 2: TGGTGGCTACGACGGGATT
# B9: AUUUCUC (DNA:RNA)
# RNA: B5 RNA with C25A, C27U, G28U, A29C
# DNA 1: CAATCTGAATTCCGGTCTCCC
# DNA 2: TGGTGGCTACGACGGGATT
# B10: AAUGACC (DNA:RNA)
# RNA: B5 RNA with C25A, U26A, C27U, U30C
# DNA 1: CAATCTGAATTCCGGTCTCCC
# DNA 2: TGGTGGCTACGACGGGATT
# B11: AUUGUCU (DNA:RNA)
# RNA: B1 RNA with G26U, A27U, A28G, G29U, G30C
# DNA 1: CAATCTGAATTCCGGTCTCCC
# DNA 2: TGGTGGCTACGACGGGATT
# B12: AGGCUGG (DNA:RNA)
# RNA: B1 RNA with A27G, A28C, G29U, U31G
# DNA 1: CAATCTGAATTCCGGTCTCCC
# DNA 2: TGGTGGCTACGACGGGATT
# B13: UCGUUUG (DNA:RNA)
# RNA: B5 RNA with C25U, U26C, C27G, G28U, A29U, C31G
# DNA 1: CAATCTGAATTCCGGTCTCCC
# DNA 2: TGGTGGCTACGACGGGATT
# B14: GUUGAAC (DNA:RNA)
# RNA: B5 RNA with C25G, C27U, U30A
# DNA 1: CAATCTGAATTCCGGTCTCCC
# DNA 2: TGGTGGCTACGACGGGATT
# B15: CGGCAAG (DNA:RNA)
# RNA: B5 RNA with U26G, C27G, G28C, U30A, C31G
# DNA 1: CAATCTGAATTCCGGTCTCCC
# DNA 2: TGGTGGCTACGACGGGATT
# B16: GAUCUUG (DNA:RNA)
# RNA: B5 RNA with C25G, U26A, C27U, G28C, A29U, C31G
# DNA 1: CAATCTGAATTCCGGTCTCCC
# DNA 2: TGGTGGCTACGACGGGATT
# B17: AAUCCGG (DNA:RNA)
# RNA: B1 RNA with G26A, A27U, A28C, G29C, U31G
# DNA 1: CAATCTGAATTCCGGTCTCCC
# DNA 2: TGGTGGCTACGACGGGATT
# B18: AGUAAUG (DNA:RNA)
# RNA: B1 RNA with A27U, G29A, G30U, U31G
# DNA 1: CAATCTGAATTCCGGTCTCCC
# DNA 2: TGGTGGCTACGACGGGATT
# B19: CCCUUGG (DNA:RNA)
# RNA: B5 RNA with U26C, G28U, A29U, U30G, C31G
# DNA 1: CAATCTGAATTCCGGTCTCCC
# DNA 2: TGGTGGCTACGACGGGATT
# B20: CGUACAC (DNA:RNA)
# RNA: B1 RNA with A25C, A27U, G29C, G30A, U31C
# DNA 1: CAATCTGAATTCCGGTCTCCC
# DNA 2: TGGTGGCTACGACGGGATT
# B21: CAGGUAU (DNA:RNA)
# RNA: B5 RNA with U26A, C27G, A29U, U30A, C31U
# DNA 1: CAATCTGAATTCCGGTCTCCC
# DNA 2: TGGTGGCTACGACGGGATT
# B22: CCGACCA (DNA:RNA)
# RNA: B1 RNA with A25C, G26C, A27G, G29C, G30C, U31A
# DNA 1: CAATCTGAATTCCGGTCTCCC
# DNA 2: TGGTGGCTACGACGGGATT
# B23: UAACCAA (DNA:RNA)
# RNA: B1 RNA with A25U, G26A, A28C, G29C, G30A, U31A
# DNA 1: CAATCTGAATTCCGGTCTCCC
# DNA 2: TGGTGGCTACGACGGGATT
# B24: UCGCUAU (DNA:RNA)
# RNA: B1 RNA with A25U, G26C, A27G, A28C, G29U, G30A
# DNA 1: CAATCTGAATTCCGGTCTCCC
# DNA 2: TGGTGGCTACGACGGGATT
# B25: CGCCAAU (DNA:RNA)
# RNA: B5 RNA with U26G, G28C, U30A, C31U
# DNA 1: CAATCTGAATTCCGGTCTCCC
# DNA 2: TGGTGGCTACGACGGGATT
# B26: UAAUGAC (DNA:RNA)
# RNA: B1 RNA with A25U, G26A, A28U, G30A, U31C
# DNA 1: CAATCTGAATTCCGGTCTCCC
# DNA 2: TGGTGGCTACGACGGGATT
# B27: GCGAAUG (DNA:RNA)
# RNA: B5 RNA with C25G, U26C, C27G, G28A, C31G
# DNA 1: CAATCTGAATTCCGGTCTCCC
# DNA 2: TGGTGGCTACGACGGGATT
# B28: GUCUGGA (DNA:RNA)
# RNA: B1 RNA with A25G, G26U, A27C, A28U, U31A
# DNA 1: CAATCTGAATTCCGGTCTCCC
# DNA 2: TGGTGGCTACGACGGGATT
# B29: UCAAGUA (DNA:RNA)
# RNA: B1 RNA with A25U, G26C, G30U, U31A
# DNA 1: CAATCTGAATTCCGGTCTCCC
# DNA 2: TGGTGGCTACGACGGGATT
# B30: UUGUGGA (DNA:RNA)
# RNA: B1 RNA with A25U, G26U, A27G, A28U, U31A
# DNA 1: CAATCTGAATTCCGGTCTCCC
# DNA 2: TGGTGGCTACGACGGGATT
# B31: CUUGGAG (DNA:RNA)
# RNA: B5 RNA with C27U, A29G, U30A, C31G
# DNA 1: CAATCTGAATTCCGGTCTCCC
# DNA 2: TGGTGGCTACGACGGGATT
# Biological target: T1, RBFOX1 RRM
# Experiment: EMSA; HiTS-Eq, 1 nM pool, 10 min; buffer printed only for the single-RNA assays: 10 mM Tris pH 7.5, 150 mM NaCl, 3.4 mM EDTA, 0.001% NP-40, 30 C
# Conditions: tags: His6 N-terminal (pET28a); label: 5' 32P
# Outline: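 These values rest on relative association constants, computed from read-count changes of each RNA species versus the control reaction and normalised to the cognate motif. Reads came from free RNA recovered by 8% native PAGE after purified RbFox RRM (wild type or mutant) at increasing concentrations was equilibrated for 10 min in 50 µL with 1 nM of a 5′-radiolabelled pool with 7 randomized nucleotides and DNA-annealed flanks.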
row,Binder,binding signal
1,B1,0.0126 KA relative to UGCAUGU
2,B2,0.0168 KA relative to UGCAUGU
3,B3,0.00783 KA relative to UGCAUGU
4,B4,0.0141 KA relative to UGCAUGU
5,B5,0.0108 KA relative to UGCAUGU
6,B6,0.00757 KA relative to UGCAUGU
7,B7,0.00943 KA relative to UGCAUGU
8,B8,0.0137 KA relative to UGCAUGU
9,B9,0.00528 KA relative to UGCAUGU
10,B10,0.00648 KA relative to UGCAUGU
11,B11,0.0119 KA relative to UGCAUGU
12,B12,0.0243 KA relative to UGCAUGU
13,B13,0.0244 KA relative to UGCAUGU
14,B14,0.0165 KA relative to UGCAUGU
15,B15,0.0154 KA relative to UGCAUGU
16,B16,0.0196 KA relative to UGCAUGU

row,Binder,binding signal
1,B17,0.00117 KA relative to UGCAUGU
2,B18,0.0141 KA relative to UGCAUGU
3,B19,0.00891 KA relative to UGCAUGU
4,B20,0.00199 KA relative to UGCAUGU
5,B21,0.00835 KA relative to UGCAUGU
6,B22,0.00111 KA relative to UGCAUGU
7,B23,0.00237 KA relative to UGCAUGU
8,B24,0.00784 KA relative to UGCAUGU
9,B25,0.00313 KA relative to UGCAUGU
10,B26,0.00631 KA relative to UGCAUGU
11,B27,0.0369 KA relative to UGCAUGU
12,B28,0.00931 KA relative to UGCAUGU
13,B29,0.00328 KA relative to UGCAUGU
14,B30,0.00599 KA relative to UGCAUGU
15,B31,0.00989 KA relative to UGCAUGU
